The source of these data is the BET-seq Pho4 binding data (Le et al. 2018).

This is one part of the list. Values were computed here from the reads of four pooled replicates and scatter widely.

This test addresses T1, Pho4 (S. cerevisiae) (UniProt P07270).
T1 sequence: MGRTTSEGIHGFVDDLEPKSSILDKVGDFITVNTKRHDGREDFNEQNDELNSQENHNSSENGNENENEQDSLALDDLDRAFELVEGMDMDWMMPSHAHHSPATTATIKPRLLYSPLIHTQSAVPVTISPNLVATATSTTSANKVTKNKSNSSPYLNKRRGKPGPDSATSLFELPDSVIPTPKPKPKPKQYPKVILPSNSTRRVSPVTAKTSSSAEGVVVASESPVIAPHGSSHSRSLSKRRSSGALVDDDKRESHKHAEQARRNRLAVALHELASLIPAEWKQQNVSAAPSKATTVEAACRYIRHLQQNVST
Description: relative binding free energy (BET-seq); higher = weaker binding. The conditions noted are these: reference: library average.
With TCTTTCACGTGGGGAT, the “relative binding free energy” value worked out at 0.17 kcal/mol. As for TAAGTCACGTGGTCGG, the figure is -0.21 kcal/mol; as for GAACTCACGTGTGGTG, 0.19 kcal/mol. For CAATTCACGTGGTTGG the value was 0.18 kcal/mol. For TTTTTCACGTGTAACG the value was 0.35 kcal/mol; for TTTAGCACGTGTGTTG, 0.02 kcal/mol. Regarding CATGTCACGTGGCAGT, the “relative binding free energy” value is 0.07 kcal/mol. AGTCACACGTGTAGGT: the “relative binding free energy” value is 0.03 kcal/mol. For TTGCACACGTGGATGG the value was -0.14 kcal/mol; for CTTGACACGTGGGGGG, -0.2 kcal/mol; for GAGTGCACGTGATGTC, 0.34 kcal/mol.

For the sequence GTTATCACGTGGCGTT, the “relative binding free energy” value stood at 0.16 kcal/mol.

As to AGTAGCACGTGAACGT, the “relative binding free energy” value was 0.23 kcal/mol. As to ATGCGCACGTGTTTGT, the “relative binding free energy” value was -0.2 kcal/mol. As for TGCAACACGTGGTTTA, the figure is 0.16 kcal/mol; as for GAGTACACGTGCTGTG, 0.05 kcal/mol. For TGGTGCACGTGCATAA the value was -0.12 kcal/mol; for GTAGTCACGTGTGTCT, 0.19 kcal/mol. As for AATGACACGTGTATGT, the figure is -0.11 kcal/mol. On to GGTGTCACGTGACGGG, for which the “relative binding free energy” value worked out at 0.28 kcal/mol.

TGGGTCACGTGTGGTA: the “relative binding free energy” value stood at 0.23 kcal/mol. For CGTGGCACGTGGAGTT the value was 0 kcal/mol. On to TGGTGCACGTGAGACA, for which the “relative binding free energy” value is 0.21 kcal/mol. For TTCAGCACGTGAGAGT the value was 0.23 kcal/mol. For ACTTTCACGTGTTTAT the value was 0.25 kcal/mol; for TTGCGCACGTGAATGG, 0.22 kcal/mol.

Consider TAGGTCACGTGAACGT, for which the “relative binding free energy” value stood at 0.2 kcal/mol. With AGTGCCACGTGTTTAT, the “relative binding free energy” value is -0.1 kcal/mol. As for GGTTTCACGTGGAACT, the figure is 0.33 kcal/mol. For AAGGGCACGTGATAAT the value was 0.03 kcal/mol; for TTCAACACGTGGGGTG, -0.18 kcal/mol.

Consider GTTCGCACGTGATGGA, for which the “relative binding free energy” value turned out to be 0.18 kcal/mol. For GTTGTCACGTGTTAAG the value was 0.22 kcal/mol; for GGCTTCACGTGCTTTG, 0.21 kcal/mol. For TGATTCACGTGGCAAG the value was 0.29 kcal/mol.

AAGAACACGTGGGTTT: the “relative binding free energy” value was -0.08 kcal/mol. For AGCAACACGTGTGGAG the value was 0.18 kcal/mol. For TCGGGCACGTGACGTG the value was 0.03 kcal/mol; for GTTAGCACGTGTCTGA, -0.02 kcal/mol. As for TTCGGCACGTGGGCAG, the figure is -0.33 kcal/mol; as for GAAGCCACGTGTTGGT, 0.1 kcal/mol. Consider GGTGACACGTGATAAT, for which the “relative binding free energy” value is 0.15 kcal/mol. For GAAGGCACGTGTAGAG, the “relative binding free energy” value was 0.02 kcal/mol. As for GATGTCACGTGGATCT, the figure is 0.16 kcal/mol; as for TCTTGCACGTGGTCGG, -0.19 kcal/mol; as for TGGGTCACGTGATACT, 0.24 kcal/mol. For TTGCTCACGTGTGTTT the value was 0.16 kcal/mol; for GTAGCCACGTGGGTTA, -0.14 kcal/mol. For AATTGCACGTGTTGAC, the “relative binding free energy” value came out at 0.11 kcal/mol. In the case of TTTATCACGTGTGGAA, the “relative binding free energy” value amounted to 0.13 kcal/mol. For CGATGCACGTGCGGTG, the “relative binding free energy” value is -0.13 kcal/mol. As to TAGGACACGTGTAGGA, the “relative binding free energy” value is 0.12 kcal/mol. For TGCGTCACGTGGCTGA, the “relative binding free energy” value is -0.02 kcal/mol. For TAGCGCACGTGATGTA the value was 0.05 kcal/mol; for GCTTGCACGTGATGGA, 0.08 kcal/mol; for CAGGGCACGTGCAGTG, -0.17 kcal/mol.

In the case of GGTGACACGTGTGCGT, the “relative binding free energy” value turned out to be 0.01 kcal/mol.

For TTGGTCACGTGCTAGG, the “relative binding free energy” value was determined as 0 kcal/mol. For TCATTCACGTGAGTGT the value was 0.35 kcal/mol; for ATTTGCACGTGTGCGT, -0.07 kcal/mol.

GTCGGCACGTGGTCGT: the “relative binding free energy” value was -0.14 kcal/mol. As for AAGGTCACGTGATTAA, the figure is 0.29 kcal/mol; as for TCGGTCACGTGGTACG, -0.06 kcal/mol; as for GTCGGCACGTGTTATT, 0.06 kcal/mol. As for GTATGCACGTGTGGAC, the figure is 0.18 kcal/mol.

As for TCTGTCACGTGGTGCA, the “relative binding free energy” value was 0.01 kcal/mol. For GGCGACACGTGGAGGT the value was 0.04 kcal/mol; for AGTTTCACGTGGATAG, 0.24 kcal/mol; for GTTGGCACGTGAAGGT, 0.11 kcal/mol. As for GTATTCACGTGTAGAT, the figure is 0.35 kcal/mol. For TATATCACGTGGGCGC the value was 0.06 kcal/mol; for TGCCGCACGTGGGTGT, -0.25 kcal/mol. Regarding AGAGGCACGTGTGTCT, the “relative binding free energy” value amounted to 0.06 kcal/mol. For TCATTCACGTGGTCAT the value was 0.3 kcal/mol. Consider TTGAGCACGTGAGCTT, for which the “relative binding free energy” value came out at 0.12 kcal/mol. As for TTCGTCACGTGTTGGT, the figure is 0.06 kcal/mol; as for TTATCCACGTGGGTAA, -0.03 kcal/mol; as for TTGAGCACGTGTTATA, -0.07 kcal/mol. For GGTAGCACGTGGGTAA the value was -0.09 kcal/mol; for CTTTTCACGTGTGATA, 0.36 kcal/mol. For ATGGGCACGTGGTGTT the value was -0.13 kcal/mol; for AGGTTCACGTGCTGCT, 0.23 kcal/mol; for AGCTGCACGTGGGGGG, -0.12 kcal/mol. Regarding TGGGGCACGTGGTTCA, the “relative binding free energy” value is -0.1 kcal/mol. For GTATTCACGTGGTTGG the value was 0.26 kcal/mol; for GGTCCCACGTGTGTGG, -0.12 kcal/mol. Regarding TCGTGCACGTGGAAGG, the “relative binding free energy” value came out at 0.03 kcal/mol. As for GAGGCCACGTGGTGGA, the figure is -0.12 kcal/mol.

Take TTGATCACGTGTTAAG: the “relative binding free energy” value came out at 0.19 kcal/mol. For the sequence TACTACACGTGAGGGG, the “relative binding free energy” value worked out at 0.15 kcal/mol. For TATTTCACGTGCGTGT the value was 0.21 kcal/mol; for GTGTACACGTGAGGCT, 0.08 kcal/mol. For GACTTCACGTGAGGTT the value was 0.44 kcal/mol. For TCTGACACGTGTGAGT the value was 0.07 kcal/mol. Consider ATTGGCACGTGTTGGT, for which the “relative binding free energy” value turned out to be 0.05 kcal/mol.

Regarding GATCGCACGTGGGGTT, the “relative binding free energy” value was -0.06 kcal/mol. As for TTGTGCACGTGGCGAA, the figure is -0.1 kcal/mol. ACTGTCACGTGATGGT: the “relative binding free energy” value worked out at 0.28 kcal/mol. As for GCGGCCACGTGGTGTT, the figure is -0.11 kcal/mol; as for GGTGCCACGTGGATTA, 0.06 kcal/mol; as for TGTTCCACGTGCGAGG, 0.11 kcal/mol.

For the sequence GTGGACACGTGTGGCC, the “relative binding free energy” value turned out to be 0.22 kcal/mol. AGTGCCACGTGATGGT: the “relative binding free energy” value is -0.06 kcal/mol. For TTTGGCACGTGAAAAA the value was 0.2 kcal/mol.

In the case of TGTAGCACGTGTAGGA, the “relative binding free energy” value was -0.07 kcal/mol. As for TAGTACACGTGAATAT, the figure is 0.29 kcal/mol; as for TTTGGCACGTGAAGCT, 0.2 kcal/mol; as for TGGGTCACGTGGGAGT, 0 kcal/mol.

As to TGTGTCACGTGTGCAT, the “relative binding free energy” value was -0.04 kcal/mol. As for GGTAGCACGTGGAGAG, the figure is -0.09 kcal/mol; as for CAGGTCACGTGGCCGG, 0.1 kcal/mol. For TGAGTCACGTGGCTGT the value was 0.05 kcal/mol; for AATAGCACGTGGATTG, 0.05 kcal/mol. For TTATGCACGTGGAATG the value was 0.09 kcal/mol; for GCGCGCACGTGTTGTT, -0.05 kcal/mol.

As to GCTGGCACGTGGTTGT, the “relative binding free energy” value was -0.14 kcal/mol. As for TGGCACACGTGTGTCG, the figure is 0.05 kcal/mol; as for GGATGCACGTGGTTTG, 0.03 kcal/mol; as for AGATTCACGTGCAGGG, 0.19 kcal/mol.

Turning to GGTGGCACGTGGTCGA, the “relative binding free energy” value was -0.19 kcal/mol. Turning to AGATGCACGTGATGGC, the “relative binding free energy” value came out at 0.23 kcal/mol. For GTTATCACGTGTAGAG, the “relative binding free energy” value amounted to 0.32 kcal/mol.

For TAGGTCACGTGTACTG, the “relative binding free energy” value came to 0.17 kcal/mol. As for GTGATCACGTGGTCGT, the figure is 0.18 kcal/mol; as for GCTATCACGTGTGTAT, 0.31 kcal/mol; as for TTTTGCACGTGGTGTA, -0.11 kcal/mol. As for GTTATCACGTGTACGG, the figure is 0.1 kcal/mol; as for TATTGCACGTGTCAAT, -0.04 kcal/mol; as for AATTACACGTGTTTTA, 0.05 kcal/mol. For TTATCCACGTGTGGTA the value was -0.04 kcal/mol. TTTCACACGTGTGAAT: the “relative binding free energy” value was 0.16 kcal/mol. For AGGGGCACGTGGATAC the value was -0.19 kcal/mol. As to ATGTGCACGTGTATCT, the “relative binding free energy” value is -0.06 kcal/mol.

In the case of AGAAGCACGTGAGGGC, the “relative binding free energy” value was found to be 0.18 kcal/mol.

Turning to TTGTGCACGTGTGTGT, the “relative binding free energy” value was 0.01 kcal/mol. As for GTTAGCACGTGGGGTT, the “relative binding free energy” value was -0.12 kcal/mol. Consider GGGGGCACGTGGTTGA, for which the “relative binding free energy” value was -0.04 kcal/mol. As for GGAGGCACGTGAAGTG, the figure is 0.21 kcal/mol. As for CGGGTCACGTGTCTAG, the figure is 0.15 kcal/mol.

For GGTTACACGTGAGTCA, the “relative binding free energy” value worked out at 0.27 kcal/mol. For GTGTACACGTGCGTGA, the “relative binding free energy” value is -0.04 kcal/mol. For GTGTTCACGTGGAGCA the value was 0.27 kcal/mol; for GTTGTCACGTGTGAGC, 0.33 kcal/mol. As for ATATGCACGTGGCGAT, the figure is -0.18 kcal/mol; as for GTATTCACGTGGTGGG, 0.26 kcal/mol; as for TTAAGCACGTGAGGGG, 0.19 kcal/mol.
